Measured values: article PMC4336329 (PLoS ONE, 2015)
Screen size: about 310,000 compounds; about 14,000 (4.5%) showed an effect of 50% or more. The effect is printed as a negative number. The list shows a part of the results.

Molecular target: human ether-à-go-go-related gene (hERG) potassium channel (human, UniProt Q12809)
Assay: primary screen, population patch clamp on CHO cells stably expressing hERG
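Note: peak tail current of the secondary pulse compared with the same well before compound.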

Sequence of human ether-à-go-go-related gene (hERG) potassium channel (Q12809 whole entry, looked up): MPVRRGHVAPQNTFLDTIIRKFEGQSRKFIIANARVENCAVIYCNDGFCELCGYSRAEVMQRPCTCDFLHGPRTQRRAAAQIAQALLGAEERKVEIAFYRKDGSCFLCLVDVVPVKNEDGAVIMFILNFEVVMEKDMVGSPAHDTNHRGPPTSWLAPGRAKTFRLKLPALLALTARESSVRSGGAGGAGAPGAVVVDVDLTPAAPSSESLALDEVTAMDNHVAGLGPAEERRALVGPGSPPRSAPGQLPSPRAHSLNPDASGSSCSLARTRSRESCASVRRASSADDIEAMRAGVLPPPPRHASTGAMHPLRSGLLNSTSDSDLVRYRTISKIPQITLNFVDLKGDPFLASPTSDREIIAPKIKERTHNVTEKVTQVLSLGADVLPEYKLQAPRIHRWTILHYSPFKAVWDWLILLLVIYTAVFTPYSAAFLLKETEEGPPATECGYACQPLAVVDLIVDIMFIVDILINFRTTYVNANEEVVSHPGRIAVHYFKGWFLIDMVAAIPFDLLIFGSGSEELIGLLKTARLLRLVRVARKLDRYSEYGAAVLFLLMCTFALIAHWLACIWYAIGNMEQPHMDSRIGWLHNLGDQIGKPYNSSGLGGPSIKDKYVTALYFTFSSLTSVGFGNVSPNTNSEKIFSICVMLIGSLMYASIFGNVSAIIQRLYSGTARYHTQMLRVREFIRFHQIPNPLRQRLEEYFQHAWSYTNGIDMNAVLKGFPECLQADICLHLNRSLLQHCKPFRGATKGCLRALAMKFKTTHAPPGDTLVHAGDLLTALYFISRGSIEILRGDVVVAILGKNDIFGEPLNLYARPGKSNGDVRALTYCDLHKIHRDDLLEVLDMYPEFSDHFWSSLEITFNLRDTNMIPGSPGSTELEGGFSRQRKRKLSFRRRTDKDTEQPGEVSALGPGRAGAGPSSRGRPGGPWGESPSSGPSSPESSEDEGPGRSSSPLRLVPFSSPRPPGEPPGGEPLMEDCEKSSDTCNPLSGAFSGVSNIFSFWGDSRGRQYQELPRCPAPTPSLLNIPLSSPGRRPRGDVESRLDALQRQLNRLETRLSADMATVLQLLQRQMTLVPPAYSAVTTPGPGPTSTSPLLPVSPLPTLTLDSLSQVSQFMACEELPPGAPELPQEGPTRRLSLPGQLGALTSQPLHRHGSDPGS

SMILES | hERG current change (%, negative = inhibition) at 10uM
CC(Oc1ccccc1)C(=O)N1CCN(c2ccc(N3CCOCC3)nn2)CC1 (stereo not shown) | -3.79%
CN1CCN(S(=O)(=O)c2ccc(NC(=O)c3ccc(F)cc3Cl)cc2)CC1 | 3.16%
CCOc1ccccc1C(=O)N/N=C/c1coc2ccc(C)cc2c1=O | 5.93%
COc1ccccc1N1CCN(C(=O)CSc2nc(-c3ccco3)cc(C(F)(F)F)n2)CC1 | -18.4%
CCOc1ccc(N=Cc2c(O)n(CCc3ccc(OC)c(OC)c3)c(=O)[nH]c2=O)cc1 | 11.1%
COCCC(=O)N1CCC(Oc2ccc(C(=O)NCCc3ccccn3)cc2)CC1 | 24.2%
CCC(Oc1ccccc1)C(=O)N(Cc1ccccc1)c1ccccn1 (stereo not shown) | -6.96%
COc1ccccc1CNC(=O)c1oc2ccc(S(=O)(=O)N3CCCC3)cc2c1C | -4.46%
O=C(CCNS(=O)(=O)c1cccc(Cl)c1)OCC(=O)N1CCN(C(=O)c2ccco2)CC1 | -43.5%
Cc1ccc(NC(=O)c2oc3ccc(S(=O)(=O)N4CCOCC4)cc3c2C)cc1C | -9.23%
CSc1c(-c2ccccn2)c(N)nn1C(=O)C1CCC1 | 1.65%
COc1ccc(C2C3=C(CC(C)(C)CC3=O)Oc3ncn(Cc4ccco4)c(=N)c32)cc1 (stereo not shown) | -68.3%
CC(=O)C1=NN(c2ccc(Cl)cc2)C(c2ccc3c(c2)OCO3)N(C(C)=O)N1C (stereo not shown) | -1.98%
COc1cccc(N2CCN(c3c4c(nc5ncnn35)CCC4)CC2)c1 | -30.6%
O=C(NC1CC1)C1=C[C@@H](c2ccc(Br)cc2)C[C@@H](OCCCCO)O1 | -15.5%
Fc1ccc(NC(=S)N/N=C/c2cccc(Br)c2)c(F)c1 | 3.9%
CS(=O)(=O)c1ccc(-c2nnn(CC(=O)Nc3ccc4c(c3)OCCO4)n2)cc1 | 11%
Cc1cc(NS(=O)(=O)c2ccc(NC(=S)NC(=O)c3ccc(Br)cc3)cc2)no1 | -41%
Cc1nn(Cc2nnc(SCC(=O)Nc3cccc(C(F)(F)F)c3)n2C)c(C)c1[N+](=O)[O-] | -57.7%
COC(=O)C1=C(C(=O)OC)[C@@H]2N(Cc3ccccc3)c3ccccc3[C@@]23C[C@@H](C(=O)OC)N(C(=O)C2CCC2)C3=N1 | -3.95%
COc1cc(C(c2nnnn2C(C)(C)C)N2CCN(c3nc4ccccc4s3)CC2)ccc1O (stereo not shown) | -28.1%
Cc1ccc(/C=N/n2cnc3sc(C)c(C)c3c2=O)o1 | 6.08%
Cc1ccc(S(=O)(=O)N2CCOCC2)cc1C(=O)Nc1ccccc1F | 3.51%
CCCCNCc1cc(Br)c(OCC(=O)N2CCOCC2)c(OC)c1.Cl | -10.1%
CCCc1nnc(NC(=O)CSc2ncn[nH]2)s1 | 9.49%
O=c1[nH]c(O)c(/C=C2\C=Nc3ccc(Br)cc32)[nH]1 | 15.1%
O=S(=O)(Nc1ccc(Cc2ccncc2)cc1)c1cccs1 | -41%
O=c1c2ccccc2nc(-c2ccco2)n1/N=C/c1ccco1 | 13.1%

SMILES | hERG current change (%, negative = inhibition) at 10uM
Cc1ccc(-c2nn3c(C)nnc3s2)cc1NC(=O)c1ccc(OC(C)C)cc1 | -40.7%
CCOc1ccccc1CNCCNCC(C)O.Cl (stereo not shown) | 16.3%
C=CCn1c(-c2ccc(Cl)cc2)cnc1SC(C)C(=O)NC(N)=O (stereo not shown) | -12.1%
CCOC(=O)CSc1nnc(CNC(=O)c2ccc(OC)cc2OC)n1-c1ccc(OC)cc1 | -50.1%
CC(=O)N/C(=C\c1ccccc1)C(=O)OCc1ccccc1 | 11.3%
O=C1C(c2ccccc2)SC(=Nc2ccccc2)N1S(=O)(=O)c1ccccc1 (stereo not shown) | 6.8%
O=C(NCC1CCCCC1)c1cc([N+](=O)[O-])ccc1Cl | 12.8%
Cc1nc(N)sc1-c1csc(Nc2cccc(C(=O)O)c2)n1 | 7.92%
O=C(COC(=O)C1CCN(C(=O)c2ccc(Cl)cc2)CC1)c1ccco1 | -26.2%
Cc1cc(OCc2cc(C(=O)N(C)C(C)c3ccccn3)no2)cc(C)c1Cl (stereo not shown) | 4.06%
CC(=O)Nc1ccc(NC(=O)C(C)Sc2nnc(-c3cccs3)o2)cc1 (stereo not shown) | 23.6%
O=C(Cc1ccc(Cl)cc1)NCC(=O)N1CCCC1 | 2.15%
CCOC(=O)/C(C#N)=C\c1c(OCC)n(CC)c2ccccc12 | 0.319%
CCc1ccc(NC(=S)NC(=O)c2c(-c3ccccc3Cl)noc2C)cc1 | 8.26%
c1ccc(-c2ccc(C3=Nn4c(nnc4-c4cccs4)SC3)cc2)cc1 | -5.67%
O=[N+]([O-])c1ccc(N=Nc2ncc[nH]2)cc1 | 9.64%
O=C(CSc1ccccn1)Nc1nc2c(ccc3ccccc32)s1 | 8.38%
CCOC(=O)NC(=S)Nc1c(C)n(C)n(-c2ccccc2)c1=O | 1.46%
Cc1cc(NC(=O)c2cccc(S(=O)(=O)N3CCC(C)CC3)c2)no1 | 0.978%
O=C(NCCc1cccc(Cl)c1)C1CCC(=O)N(Cc2ccc(Cl)cc2)C1 (stereo not shown) | -52.3%
COc1ccc(OC)c(C2C=C(c3ccc(C)c(C)c3)Nc3nnnn32)c1 (stereo not shown) | -2.07%
Cc1ccc(Cl)cc1NC(=O)Nc1cccs1 | 23.3%
CCOc1ccccc1CNn1nnnc1N | 30.5%
COC(=O)c1cc(COC(=O)c2nc3nc(C)cc(C)n3n2)oc1C | 8.71%
Cc1ccccc1OCc1csc(N)n1 | 2.81%
Cc1ccc(NC(=O)c2ccc(NCCN)c([N+](=O)[O-])c2)cc1Cl | -14.3%
COc1ccc(/C=C(\C#N)C(=O)OCC(=O)Nc2ccc(-c3nc4ccc(C)cc4s3)cc2)cc1 | 2.04%
